Screen size: about 360,000 compounds; about 7,500 (2.1%) were called active. Inconclusive means that the source gave no clear call. Such entries were picked first, then a sample of the others. Calls follow the shape of the dose curve; as a rule, active = well fitted cell-killing curve with a large enough effect; inconclusive = small, poorly fitted or top-dose-only effect, or effect the other way, or another doubt; inactive = no such curve, though single readings can be large or run the other way. No potency is given beside an inconclusive call; the fits are too rough.
Assay: qHTS for induction of synthetic lethality in tumor cells producing 2HG: qHTS for the HT-1080-IDH1KD cell line;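 as to activity, negative = toxicity: 0% = DMSO wells and -100% = cell-free medium wells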
Conditions: HT-1080 IDH1 knockdown viability, ATP luminescence, 48 h; activity, negative = toxicity: at 46.1 µM (top of the series) unless noted
Procedure, shortened: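 CellTiter-Glo luminescence after 48 h compound exposure at 37 degrees C of IDH1-knockdown HT-1080 cells in 5% FBS RPMI. %Activity scaled between DMSO wells and cell-free media wells, with curves fitted and assigned curve classes.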
Potency is read from the fitted curve at half-maximal effect; tags tell the direction and shape of the fitted curve.

Compound | Potency | activity, negative = toxicity
COc1cccc(C(=O)N2N=C(c3ccccn3)CC2(O)C(F)(F)F)c1 (stereo unspecified) | inconclusive [cytotoxic, single point] | –
Cc1cc(F)ccc1C(O)c1ncc(-c2cccc3ccccc23)[nH]1 (stereo unspecified) | inconclusive [cytotoxic, single point] | –
O=[N+]([O-])c1ccc(S(=O)(=O)N2CCC3(CC2)OCCN3S(=O)(=O)c2cccs2)cc1 | – | inactive: 1.43%
O=[N+]([O-])c1cc([N+](=O)[O-])c2oc(-c3ccccc3)c(Br)c2c1O | inconclusive [cytotoxic, full curve] | –
Cc1nn(C)cc1/C=C/C(=O)c1ccccc1 | inconclusive [cytotoxic, single point] | –
Cc1ccc(C)c(Cn2c3ccccc3c3cnn(CC(=O)NCCCN4CCOCC4)c(=O)c32)c1 | inconclusive [cytotoxic, partial curve] | –
CCOC(=O)c1c(C)[nH]c(C(=O)OC(C)C(=O)Nc2ccccc2OC)c1C (stereo unspecified) | inconclusive [cytotoxic, partial curve] | –
CCOc1cc(C(=O)Nc2ccc(S(=O)(=O)NC3=NCCCCC3)cc2)cc(Br)c1OC | active: 20.6 µM | –
CN(C)CCNC(=O)c1onc(CSc2ccncc2)c1C(=O)NCCN(C)C | – | inactive: 11.6%
CCCC(CCC)c1nnc(NC(=O)c2ccco2)s1 | – | inactive: -20.8%
O=C(c1cnc(-c2ccccc2)s1)c1ccc(Cl)cc1Cl | inconclusive [rising, full curve] | –
CCOC(=O)C1=C(CS(=O)(=O)c2ccc(C)cc2)NC(=O)NC1c1cc(OC)c(OC)c(OC)c1 (stereo unspecified) | – | inactive: -2.38%
CCOc1ccc(N2CC(C(=O)Nc3ccccc3C(=O)NC3CC3)CC2=O)cc1 (stereo unspecified) | – | inactive: 7.94%
COc1ccc(Cn2cc(CN3CC(N4CCN(Cc5ccccc5F)CC4)CS3(=O)=O)nn2)cc1 (stereo unspecified) | active: 23.1 µM | –
CCOC(=O)c1cccc(NC(=O)c2c(NCc3ccccc3)[nH]c(=O)[nH]c2=O)c1 | inconclusive [cytotoxic, single point] | –
CCOC(=O)N1CCN(c2ncnc3c2[nH]c2ccc(F)cc23)CC1 | inconclusive [cytotoxic, partial curve] | –
Cc1c(C(=O)N(Cc2cccc(Br)c2)C2CCS(=O)(=O)C2)oc2ccc(F)cc12 (stereo unspecified) | inconclusive [cytotoxic, single point] | –
CCCCN(CC(=O)NC1CCCC1)C(=O)C(=O)Nc1ccc2c(c1)OCCO2 | – | inactive: 16%
CCCc1cc(-c2n[nH]c(=S)n2Cc2ccccc2)cs1 | inconclusive [cytotoxic, single point] | –
OCC1(Cc2ccc(Cl)cc2)CCN(Cc2ccc3nsnc3c2)CC1 | inconclusive [cytotoxic, partial curve, poor fit] | –
Cc1ccccc1NCC(=O)N/N=C\c1ccc2c(c1)OCO2 | – | inactive: -9.83%
OC1CCCN(c2ncnc3c2nnn3Cc2c(F)cccc2Cl)C1 (stereo unspecified) | inconclusive [cytotoxic, single point] | –
COc1ccc(Oc2ccc(NC(=O)c3ccccc3C)cc2)cc1 | inconclusive [cytotoxic, single point] | –

Compound | Potency | activity, negative = toxicity
COc1ccc(C2C3=C(CCCC3=O)NC3=C2C(=O)c2ccccc23)cc1 (stereo unspecified) | – | inactive: -1.06%
O=C(NCc1ccco1)Nc1ccc2nsnc2c1 | inconclusive [cytotoxic, single point] | –
CC(C)[C@H](NC(=O)C1CCN(C(=O)[C@@H]2CCCN2)CC1)C(=O)NCc1ccc(F)cc1 | – | inactive: -0.254%
COC(=O)c1ccccc1NC1=C/C(=N\S(=O)(=O)c2cccs2)c2ccccc2C1=O | active: 6.31 µM | –
Cc1ccc(Nc2nc(N)c(C#N)c(CC#N)c2C#N)cc1 | inconclusive [cytotoxic, single point] | –
C[C@@H]1CN([C@@H](C)CO)C(=O)Cc2cc(NC(=O)Nc3ccc(C(F)(F)F)cc3)ccc2O[C@@H]1CN(C)S(=O)(=O)c1ccc(Cl)cc1 | active: 23.1 µM | –
OC(c1ccccc1)(c1nc(-c2cc3ccccc3o2)cs1)C(F)(F)F (stereo unspecified) | inconclusive [cytotoxic, single point] | –
CC(C)NC(=O)c1ccc(CSCc2ccccc2Cl)o1 | – | inactive: -4.67%
O=C1C=CC(=O)N1CCCCCCCCCCN1C(=O)C=CC1=O | inconclusive [cytotoxic, single point] | –
CCCCc1c(-c2ccccc2Br)ncn1CCc1ccccc1OC | inconclusive [cytotoxic, single point] | –
CCC1CCCCN1CCCNC(=O)c1cn(CC)c2ccc(S(=O)(=O)N3CCc4ccccc4C3)cc2c1=O (stereo unspecified) | – | inactive: -5.84%
O=C(CCCCn1c(=S)[nH]c2ccsc2c1=O)NCc1ccc2c(c1)OCO2 | inconclusive [cytotoxic, partial curve] | –
CCCCc1nc(SCC(=O)Nc2cccc(Cl)c2)n[nH]1 | – | inconclusive: 34.2%
O=C(NCCCN1CCc2ccccc2C1)Nc1ccc(Cl)cc1 | inconclusive [cytotoxic, single point] | –
C[C@@H]1CN([C@H](C)CO)S(=O)(=O)c2ccc(Br)cc2O[C@@H]1CN(C)Cc1ccc(-c2ccccc2)cc1 | active: 16.4 µM | –
CC1CCCC(C)N1C(=O)c1cc(-c2ccc(Cl)c(Cl)c2)on1 (stereo unspecified) | inconclusive [cytotoxic, single point] | –
Cc1ccc2c(c1)c1c(n2CC(O)CN2C(=O)CNC2=O)C(=O)CCC1 (stereo unspecified) | – | inactive: 0.697%
COc1cccc(CN(C)C(=O)CNC(=O)c2ccc(-c3ccccc3)cc2)c1OC | active: 4.61 µM | –
c1ccc2ccccc2c1 | – | inactive: 8.04%
CCCC1(C(=O)OCC)NC(c2ccc(OC)cc2OC)C2C(=O)N(c3ccccc3)C(=O)C21 (stereo unspecified) | – | inactive: 0.135% [at 9.24 µM]
Oc1ccc(C(=S)N2CCN(c3cccc(Cl)c3)CC2)cc1 | inconclusive [cytotoxic, single point] | –
NC(Cc1ccc(F)cc1)c1csc(Nc2cc(NCc3ccco3)ncn2)n1 (stereo unspecified) | active: 16.4 µM | –
Cc1ccc(C)c(NC(=O)CN(C)C(=O)c2cc3c(s2)CCCCC3)c1 | – | inactive: -2.22%
